Reference: PubChem BioAssay AID1345082 (National Center for Advancing Translational Sciences (NCATS), 2018)
Screen size: about 94,000 compounds; about 4,000 (4.3%) were called active. The inconclusive results got no clear call from the source; some entries with a clear call stand among them for comparison. Calls come from the whole dose curve; as a rule, active = well fitted inhibition curve with a large enough effect; inconclusive = small, poorly fitted or top-dose-only effect; inactive = no such curve, though single readings can be large or run the other way. Where the call is inconclusive, the potency comes from a doubtful curve fit.

assay: Cytotoxic Profiling in NIH 3T3 Cell Line of Diverse Libraries Using Quantitative High-Throughput Screening; conditions: NIH 3T3 viability, CellTiter-Glo ATP luminescence, 48-72 h; activity change, negative = cytotoxicity: at 96.7 µM (top of the series); series mostly up to 96.7 µM; note: nearly all actives have a fitted effect of over 55% in size
How it was run: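 Cytotoxicity is measured as loss of cellular ATP: NIH 3T3 cells (400/well) are exposed to compound for 48 or 72 hr at 37 °C, then CellTiter-Glo luminescence is imaged after 10 min at room temperature.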
% is set by controls: 0 for no effect and ±100 for the full control effect; potency is the fitted concentration of half-maximal effect; tags give direction and shape of the fitted curve.

| Compound | Potency | outcome | activity change, negative = cytotoxicity |
| --- | --- | --- | --- |
| Cc1ccc(CN2CCC3(CNc4ccccc4[S+](=O)([O-])N3)C2)cc1 (configuration not stated) | inconclusive: 50.1 µM [inhibitor, partial curve, poor fit] | – | – |
| O=C(Nc1ccc2c(c1)OCCO2)N1CCC2(CC1)CC(N1CCCC1)CCO2 (configuration not stated) | – | inactive | – |
| CCOc1ccccc1C1NC(=O)N(CC(=O)N(CC)c2ccccc2)C2=C1C(=O)OC2 (configuration not stated) | – | – | inactive: -18.7% |
| CCOc1ccccc1NC(=O)Cn1c(-c2ccccc2)nc(C)c(CCO)c1=O | – | – | inactive: -3.29% |
| Cc1ccc(C(=O)N2CCN(Cc3ccccc3-c3cccnc3)CC2)cc1 | inconclusive: 50.1 µM [inhibitor, partial curve, poor fit] | – | – |
| CC1=C[C@@H](CN2CCN(CCO)CC2)[C@H](C(C)C)C[C@H]1Cc1nnc(-c2ccc(N(C)C)cc2)o1 | active: 20 µM | – | – |
| CCOC(=O)CN1CCN(C(=O)CCc2cc3cc(OC)ccc3[nH]c2=O)CC1 | – | – | inactive: -17.8% |
| CCn1ccc(C(=O)NCC2Cn3cccc3CN2Cc2ccccc2)n1 (configuration not stated) | inconclusive: 56.2 µM [inhibitor, partial curve, poor fit] | – | – |
| COc1ccc(CN2Cc3cc(NC(=O)Cc4ccc(F)cc4)ccc3OCC2=O)c(OC)c1 | inconclusive: 39.8 µM [inhibitor, partial curve] | – | – |
| Clc1ccc(CNc2nc(-c3ccccc3)no2)cc1 | inconclusive: 50.1 µM [inhibitor, partial curve, poor fit] | – | – |
| COc1ccc(-c2ccccc2C(=O)NCCCOC(C)C)nn1 | inconclusive: 89.1 µM [inhibitor, partial curve, poor fit] | – | – |
| CCn1nc(C)c(CNC(=O)[C@@H]2C[C@@H](O)CN2C2CCN(C(=O)c3cccc(OC)c3)CC2)c1C | – | – | inactive: -19.6% |
| CCc1nc2c(c(-c3ccc(O)cc3)n1)CCN(Cc1ccc(F)cc1)CC2 | inconclusive: 44.7 µM [inhibitor, partial curve, poor fit] | – | – |
| COc1ccc(CN2C[C@@H]3C[C@@H](C(N)=O)N(C(=O)C(C)C)c4cccc(c43)C2=O)cc1 | inconclusive: 31.6 µM [inhibitor, partial curve, poor fit] | – | – |
| COc1ccc(NC(=O)N2CCCC(Cn3cnc4cccnc43)C2)c(OC)c1 (configuration not stated) | – | – | inactive: 0.293% |
| CN1[C@@H](CCC(=O)NCc2cccs2)CNC(=O)[C@@H]2[C@H]1CCN2Cc1ccccc1 | – | – | inactive: -17.8% [at 174 µM] |
| CN(Cc1cc(-c2ccccc2)n[nH]1)c1cc(C2CC(N)C2)ncn1 (configuration not stated) | inconclusive: 20 µM [inhibitor, full curve] | – | – |
| COc1cc(CN2CCN(Cc3ccc(-n4cccn4)cc3C)CC2CCO)cc(OC)c1 (configuration not stated) | inconclusive: 63.1 µM [inhibitor, partial curve, poor fit] | – | – |
| CC(C)(CC(=O)O)CC(=O)N1Cc2[nH]cnc2C[C@H]1c1nc(-c2ccc3ccccc3c2)no1 | – | inactive | – |
| O=C1N2CCCC2CN1C1CCN(Cc2ccc3ccccc3c2)CC1 (configuration not stated) | inconclusive: 50.1 µM [inhibitor, single point] | – | – |
| CC1=C[C@@H](CC#N)[C@H](C(C)C)C[C@H]1CC(=O)NCc1ccc(C(F)(F)F)cc1 | – | – | inactive: 2.76% [at 174 µM] |

| Compound | Potency | outcome | activity change, negative = cytotoxicity |
| --- | --- | --- | --- |
| O=C(c1ccccc1)N1CCC2(CC1)COc1ccccc1CN2 | – | – | inactive: -16.9% [at 138 µM] |
| Cc1ccccc1-c1nc(C2CC(=O)N(c3ccc(F)cc3)C2)no1 (configuration not stated) | inconclusive: 50.1 µM [inhibitor, single point] | – | – |
| COC[C@@H]1CN(C(=O)c2ccc(C)cn2)C[C@H]1c1nc(C2CC2)no1 | – | – | inactive: -10.2% |
| Nc1ccc2c(N3CCCCC3)ncnc2c1 | – | – | inactive: -20.8% |
| O=C(NC1CCN(c2cc(-c3cccs3)[nH]n2)C1)c1ccccc1Br (configuration not stated) | inconclusive: 44.7 µM [inhibitor, partial curve, poor fit] | – | – |
| COc1ccc2c(c1)CN(CC=C(C)C)C(=O)CCN2CC(O)COC(C)(C)C (configuration not stated) | inconclusive: 35.5 µM [inhibitor, partial curve] | – | – |
| COc1ccc(NC(=O)c2ccc3c(c2)n(C)c(=O)c2ccnn23)cc1OC | inconclusive: 22.4 µM [inhibitor, partial curve, poor fit] | – | – |
| COc1ccc(CN2CCc3ncc(C(=O)NCC4CC4)n3CC2)cn1 | inconclusive: 44.7 µM [inhibitor, partial curve, poor fit] | – | – |
| CCS(=O)(=O)Nc1ccc(C2(C(=O)N3CCN(CC(C)C)CC3)CCCCC2)cc1 | – | – | inactive: -13.5% |
| O=C(NCC1CC1)c1cn2cc(-c3ccc(C(F)(F)F)cc3)sc2n1 | inconclusive: 11.2 µM [inhibitor, full curve] | – | – |
| CC(=O)N1CCc2nn(CC(=O)Nc3cc(F)cc(F)c3)c(=O)cc2C1 | – | inactive | – |
| COCCN1C(=O)CCc2cc(NC(=O)c3ccc4c(c3)OCO4)ccc21 | – | – | inactive: -7.34% |
| COc1cccc(NC(=O)c2cnc3c(c2)N([S+](=O)([O-])c2cccnc2)CCC3)c1 | inconclusive: 79.4 µM [inhibitor, partial curve] | – | – |
| COc1ccccc1-c1cc(Nc2ccc(N3CCOCC3)cc2)c2onc(C)c2n1 | inconclusive: 44.7 µM [inhibitor, full curve] | – | – |
| COc1ccc2c(c1)OCC(C(=O)NCc1noc(-c3ccco3)n1)C2 (configuration not stated) | – | – | inactive: -21.5% |
| CNC(=O)c1cc(C)nc2onc(C3CCN(C(=O)c4ccccc4OC)C3)c12 (configuration not stated) | – | – | inactive: -0.0192% |
| FC(F)(F)c1ccc(CNc2cc(Cl)nc3ccnn23)cc1 | inconclusive: 56.2 µM [inhibitor, partial curve, poor fit] | – | – |
| COc1ccc(S(=O)(=O)N[C@H]2C[C@@H](c3nc(-c4ccc(OC(F)(F)F)cc4)no3)N(C)C2)cc1 | inconclusive: 31.6 µM [inhibitor, partial curve] | – | – |
| COc1ccccc1-c1cc(C(=O)NCC2CCCCC2)c2cnn(C)c2n1 | – | – | inactive: -17.1% |
| C[C@@H]1C(=O)O[C@H]2[C@H]1CC[C@@]1(C)Cc3sc(NS(=O)(=O)c4ccc(F)cc4F)nc3[C@@H](C)[C@H]21 | inconclusive: 50.1 µM [inhibitor, partial curve, poor fit] | – | – |
| O=C(Cc1ccc(F)cc1)N1CCc2nc(-c3ccccc3)nc(-c3ccc(Cl)cc3)c2C1 | inconclusive: 44.7 µM [inhibitor, partial curve, poor fit] | – | – |
